{"source": "the supplement of paper PMC8728848", "binders": {"B1": {"name": "AT1G15820(2) (Arabidopsis thaliana), Q9LMQ2 (protein)", "chain": "MAMAVSGAVLSGLGSSFLTGGKRGATALASGVGTGAQRVGRKTLIVAAAAAQPKKSWIPAVKGGGNFLDPEWLDGSLPGDFGFDPLGLGKDPAFLKWYREAELIHGRWAMAAVLGIFVGQAWSGVAWFEAGAQPDAIAPFSFGSLLGTQLLLMGWVESKRWVDFFNPDSQSVEWATPWSKTAENFANYTGDQGYPGGRFFDPLGLAGKNRDGVYEPDFEKLERLKLAEIKHSRLAMVAMLIFYFEAGQGKTPLGALGL"}}, "experiment_in_all_cases": "glycan array binding signal (z-score within array); higher = stronger binding", "details_in_all_cases": "glycan notation: IUPAC condensed, linker removed", "key": {"[1]": {"molecular_target": "GlcNAc(b1-3)Gal(b1-4)GlcNAc(b1-3)Gal(b1-4)GlcNAc(b1-3)Gal(b1-4)GlcNAc(b1-3)Gal(b1-4)GlcNAc(b1-2)[GlcNAc(b1-3)Gal(b1-4)GlcNAc(b1-3)Gal(b1-4)GlcNAc(b1-3)Gal(b1-4)GlcNAc(b1-3)Gal(b1-4)GlcNAc(b1-6)]Man(a1-6)[GlcNAc(b1-3)Gal(b1-4)GlcNAc(b1-3)Gal(b1-4)GlcNAc(b1-3)Gal(b1-4)GlcNAc(b1-3)Gal(b1-4)GlcNAc(b1-2)Man(a1-3)]Man(b1-4)GlcNAc(b1-4)[Fuc(a1-6)]GlcNAc", "outline": "(§1)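 The binding signal is a Z-score computed within each array. Data were drawn from 3228 arrays in the Consortium for Functional Glycomics database, restricted to those with a known protein sequence. Scores were averaged over arrays of the same protein sequence at different concentrations or buffers, and over linkers, and negative values can be taken as non-binding.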"}, "[2]": {"molecular_target": "GlcNAc(b1-3)Gal(b1-4)GlcNAc(b1-3)Gal(b1-4)GlcNAc(b1-3)GalNAc", "outline": "as §1"}, "[3]": {"molecular_target": "GlcNAc(b1-3)Gal(b1-4)GlcNAc(b1-3)GalNAc", "outline": "as §1"}, "[4]": {"molecular_target": "GlcNAc(b1-3)Gal(b1-4)GlcNAc(b1-3)[GlcNAc(b1-3)Gal(b1-4)GlcNAc(b1-3)]GalNAc", "outline": "as §1"}, "[5]": {"molecular_target": "GlcNAc(b1-3)Gal(b1-4)GlcNAc(b1-6)[Gal(b1-3)]GalNAc", "outline": "as §1"}, "[6]": {"molecular_target": "GlcNAc(b1-3)Gal(b1-4)GlcNAc(b1-6)[GlcNAc(b1-3)Gal(b1-3)]GalNAc", "outline": "as §1"}, "[7]": {"molecular_target": "GlcNAc(b1-3)Gal(b1-4)GlcNAc(b1-6)[GlcNAc(b1-3)]Gal(b1-4)GlcNAc", "outline": "as §1"}, "GlcNAc(b1-3)GalNAc": {"molecular_target": "GlcNAc(b1-3)GalNAc", "outline": "as §1"}, "GlcNAc(b1-3)Man": {"molecular_target": "GlcNAc(b1-3)Man", "outline": "as §1"}, "[8]": {"molecular_target": "GlcNAc(b1-3)[GlcNAc(b1-4)][GlcNAc(b1-6)]GlcNAc", "outline": "as §1"}, "[9]": {"molecular_target": "GlcNAc(b1-3)[GlcNAc(b1-6)]Gal(b1-4)GlcNAc", "outline": "as §1"}, "[10]": {"molecular_target": "GlcNAc(b1-3)[GlcNAc(b1-6)]GalNAc", "outline": "as §1"}, "[11]": {"molecular_target": "GlcNAc(b1-4)Gal(b1-4)GlcNAc", "outline": "as §1"}, "GlcNAc(b1-4)GlcNAc": {"molecular_target": "GlcNAc(b1-4)GlcNAc", "outline": "as §1"}, "[12]": {"molecular_target": "GlcNAc(b1-4)GlcNAc(b1-4)GlcNAc", "outline": "as §1"}, "[13]": {"molecular_target": "GlcNAc(b1-4)GlcNAc(b1-4)GlcNAc(b1-4)GlcNAc(b1-4)GlcNAc", "outline": "as §1"}, "[14]": {"molecular_target": "GlcNAc(b1-4)GlcNAc(b1-4)GlcNAc(b1-4)GlcNAc(b1-4)GlcNAc(b1-4)GlcNAc", "outline": "as §1"}, "[15]": {"molecular_target": "GlcNAc(b1-4)[GlcNAc(b1-6)]GalNAc", "outline": "as §1"}, "[16]": {"molecular_target": "GlcNAc(b1-6)Gal(b1-4)GlcNAc", "outline": "as §1"}, "GlcNAc(b1-6)GalNAc": {"molecular_target": "GlcNAc(b1-6)GalNAc", "outline": "as §1"}, "[17]": {"molecular_target": "GlcNAc6S(b1-3)Gal(b1-4)GlcNAc", "outline": "as §1"}, "Kdn(a2-3)Gal(b1-3)GalNAc": {"molecular_target": "Kdn(a2-3)Gal(b1-3)GalNAc", "outline": "as §1"}, "Kdn(a2-3)Gal(b1-3)GlcNAc": {"molecular_target": "Kdn(a2-3)Gal(b1-3)GlcNAc", "outline": "as §1"}, "Kdn(a2-3)Gal(b1-4)Glc": {"molecular_target": "Kdn(a2-3)Gal(b1-4)Glc", "outline": "as §1"}, "Kdn(a2-3)Gal(b1-4)GlcNAc": {"molecular_target": "Kdn(a2-3)Gal(b1-4)GlcNAc", "outline": "as §1"}, "[18]": {"molecular_target": "Kdn(a2-3)Gal(b1-4)[Fuc(a1-3)]GlcNAc", "outline": "as §1"}, "Kdn(a2-6)Gal(b1-4)GlcNAc": {"molecular_target": "Kdn(a2-6)Gal(b1-4)GlcNAc", "outline": "as §1"}, "[19]": {"molecular_target": "Man(a1-2)Man(a1-2)Man(a1-3)Man", "outline": "as §1"}, "[20]": {"molecular_target": "Man(a1-2)Man(a1-2)Man(a1-6)[Man(a1-3)]Man", "outline": "as §1"}, "Man(a1-2)Man(a1-3)Man": {"molecular_target": "Man(a1-2)Man(a1-3)Man", "outline": "as §1"}, "[21]": {"molecular_target": "Man(a1-2)Man(a1-3)[Man(a1-2)Man(a1-6)]Man", "outline": "as §1"}, "[22]": {"molecular_target": "Man(a1-2)Man(a1-3)[Man(a1-2)Man(a1-6)]Man(a1-6)[Man(a1-2)Man(a1-2)Man(a1-3)]Man", "outline": "as §1"}, "[23]": {"molecular_target": "Man(a1-2)Man(a1-3)[Man(a1-2)Man(a1-6)]Man(a1-6)[Man(a1-2)Man(a1-2)Man(a1-3)]Man(b1-4)GlcNAc(b1-4)GlcNAc", "outline": "as §1"}, "[24]": {"molecular_target": "Man(a1-2)Man(a1-3)[Man(a1-6)]Man(a1-6)[Man(a1-2)Man(a1-3)]Man(b1-4)GlcNAc(b1-4)GlcNAc", "outline": "as §1"}, "[25]": {"molecular_target": "Man(a1-2)Man(a1-6)[Man(a1-3)]Man(a1-6)[Man(a1-2)Man(a1-2)Man(a1-3)]Man", "outline": "as §1"}, "[26]": {"molecular_target": "Man(a1-2)Man(a1-6)[Man(a1-3)]Man(a1-6)[Man(a1-2)Man(a1-2)Man(a1-3)]Man(b1-4)GlcNAc(b1-4)GlcNAc", "outline": "as §1"}, "Man(a1-3)[Man(a1-6)]Man": {"molecular_target": "Man(a1-3)[Man(a1-6)]Man", "outline": "as §1"}}, "note": "The list shows a part of the results.", "data": [{"binder": "B1", "values": [{"measurement": "glycan array binding signal (z-score)", "setting": "[1]", "value": -0.086}, {"measurement": "glycan array binding signal (z-score)", "setting": "[2]", "value": -0.536}, {"measurement": "glycan array binding signal (z-score)", "setting": "[3]", "value": -0.637}, {"measurement": "glycan array binding signal (z-score)", "setting": "[4]", "value": 1.33}, {"measurement": "glycan array binding signal (z-score)", "setting": "[5]", "value": -0.16}, {"measurement": "glycan array binding signal (z-score)", "setting": "[6]", "value": -0.409}, {"measurement": "glycan array binding signal (z-score)", "setting": "[7]", "value": -0.641}, {"measurement": "glycan array binding signal (z-score)", "setting": "GlcNAc(b1-3)GalNAc", "value": -0.211}, {"measurement": "glycan array binding signal (z-score)", "setting": "GlcNAc(b1-3)Man", "value": -0.523}, {"measurement": "glycan array binding signal (z-score)", "setting": "[8]", "value": -0.856}, {"measurement": "glycan array binding signal (z-score)", "setting": "[9]", "value": 0.207}, {"measurement": "glycan array binding signal (z-score)", "setting": "[10]", "value": -0.376}, {"measurement": "glycan array binding signal (z-score)", "setting": "[11]", "value": -0.044}, {"measurement": "glycan array binding signal (z-score)", "setting": "GlcNAc(b1-4)GlcNAc", "value": 0.104}, {"measurement": "glycan array binding signal (z-score)", "setting": "[12]", "value": -0.425}, {"measurement": "glycan array binding signal (z-score)", "setting": "[13]", "value": 0.024}, {"measurement": "glycan array binding signal (z-score)", "setting": "[14]", "value": 0.044}, {"measurement": "glycan array binding signal (z-score)", "setting": "[15]", "value": -0.387}, {"measurement": "glycan array binding signal (z-score)", "setting": "[16]", "value": -0.467}, {"measurement": "glycan array binding signal (z-score)", "setting": "GlcNAc(b1-6)GalNAc", "value": -0.451}, {"measurement": "glycan array binding signal (z-score)", "setting": "[17]", "value": 0.141}, {"measurement": "glycan array binding signal (z-score)", "setting": "Kdn(a2-3)Gal(b1-3)GalNAc", "value": 0.077}, {"measurement": "glycan array binding signal (z-score)", "setting": "Kdn(a2-3)Gal(b1-3)GlcNAc", "value": 0.161}, {"measurement": "glycan array binding signal (z-score)", "setting": "Kdn(a2-3)Gal(b1-4)Glc", "value": -0.157}, {"measurement": "glycan array binding signal (z-score)", "setting": "Kdn(a2-3)Gal(b1-4)GlcNAc", "value": 0.077}, {"measurement": "glycan array binding signal (z-score)", "setting": "[18]", "value": -0.243}, {"measurement": "glycan array binding signal (z-score)", "setting": "Kdn(a2-6)Gal(b1-4)GlcNAc", "value": -0.581}, {"measurement": "glycan array binding signal (z-score)", "setting": "[19]", "value": -0.608}, {"measurement": "glycan array binding signal (z-score)", "setting": "[20]", "value": -0.495}, {"measurement": "glycan array binding signal (z-score)", "setting": "Man(a1-2)Man(a1-3)Man", "value": -0.176}, {"measurement": "glycan array binding signal (z-score)", "setting": "[21]", "value": -0.448}, {"measurement": "glycan array binding signal (z-score)", "setting": "[22]", "value": -0.689}, {"measurement": "glycan array binding signal (z-score)", "setting": "[23]", "value": -0.295}, {"measurement": "glycan array binding signal (z-score)", "setting": "[24]", "value": -0.442}, {"measurement": "glycan array binding signal (z-score)", "setting": "[25]", "value": -0.391}, {"measurement": "glycan array binding signal (z-score)", "setting": "[26]", "value": -0.821}, {"measurement": "glycan array binding signal (z-score)", "setting": "Man(a1-3)[Man(a1-6)]Man", "value": -0.612}]}]}
